Measured values reported in the supplement of paper PMC4604168 (melanoma cell lines).
This is one part of the list. Many values rest on one well or one pass, so single values are uncertain.

How the values were obtained:
Test in all cases: cell count relative to DMSO control; melanoma cells; higher = more viable cells
Details in all cases: library dose: low library concentration; 72 h
[1] = system: MZ2-MEL
[2] = system: MeWo
[3] = system: RPMI7951
[4] = system: RVH-421
[5] = system: SkMel28
[6] = system: SkMel30
[7] = system: SkMel5
[8] = system: UACC257
[9] = system: UACC62
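Also: cell number obtained by counting DAPI-stained nuclei in high-throughput microscope images with image analysis software, screen run in 1,536-well plates.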

Row | Structure (SMILES) | cell count [1] [%] | cell count [2] [%] | cell count [3] [%] | cell count [4] [%] | cell count [5] [%] | cell count [6] [%] | cell count [7] [%] | cell count [8] [%] | cell count [9] [%]
1 | COc1ccc2c(c1)CCC1C2CCC2(C)C(NCCCCCCN3C(=O)C=CC3=O)CCC12 (stereo not drawn) + O=C(Oc1ccc([N+](=O)[O-])cc1)N1CCC(C(O)(c2ccc3c(c2)OCO3)c2ccc3c(c2)OCO3)CC1 [JZL184] (first compound 0.4 µM, partner dose 1 µM) | 98.5 | 98.5 | 71.1 | 109 | 83.1 | 108 | 86.9 | 110 | 94.2
2 | Cc1cc(SCc2sc(-c3ccc(C(F)(F)F)c(F)c3)nc2C)ccc1OCC(=O)O + O=C1NC(=O)/C(=C/c2ccc(-c3ccc(F)cc3O)o2)S1 [AS252424] (first compound 2 µM, partner dose 1 µM) | 102 | 91.9 | 104 | 79.4 | 98.8 | 98.2 | 91 | 72.2 | 86.2
3 | CC1(C)NC(=O)N(c2ccc([N+](=O)[O-])c(C(F)(F)F)c2)C1=O [nilutamide] + Cc1cc(SCc2sc(-c3ccc(C(F)(F)F)c(F)c3)nc2C)ccc1OCC(=O)O [GW0742] (first compound 1 µM, partner dose 2 µM) | 99.8 | 117 | 105 | 129 | 99.2 | 89.8 | 97.4 | 86.1 | 96.8
4 | Cc1cc(SCc2sc(-c3ccc(C(F)(F)F)c(F)c3)nc2C)ccc1OCC(=O)O + O=C(O)C(=O)Nc1sc2c(c1C(=O)O)CCNC2 [TCS401] (first compound 2 µM, partner dose 1.66667 µM) | 105 | 91.3 | 87.1 | 94.3 | 94.5 | 106 | 91.9 | 86.4 | 93.8
5 | Cc1cc(SCc2sc(-c3ccc(C(F)(F)F)c(F)c3)nc2C)ccc1OCC(=O)O + CCCCCCCCCCCC1=C(O)C(=O)C=C(O)C1=O [Embelin] (first compound 2 µM, partner dose 1.2 µM) | 103 | 107 | 94.3 | 108 | 90.9 | 112 | 102 | 89.8 | 103
6 | Nc1cccc2c1CN(C1CCC(=O)NC1=O)C2=O (stereo not drawn) [lenalidomide] + C/C(O)=C(\C#N)C(=O)Nc1cc(Br)ccc1Br [LFM-A13] (first compound 1 µM, partner dose 2 µM) | 96.4 | 100 | 105 | 97.5 | 102 | 119 | 82.9 | 81 | 81.7
7 | Cc1cc(SCc2sc(-c3ccc(C(F)(F)F)c(F)c3)nc2C)ccc1OCC(=O)O + Cn1cc(/C=C2\C(=O)Nc3cccnc32)c2ccccc21 [GW441756] (first compound 2 µM, partner dose 0.4 µM) | 93.6 | 93 | 106 | 104 | 87.9 | 105 | 84.5 | 84 | 88.7
8 | C/C(O)=C(\C#N)C(=O)Nc1cc(Br)ccc1Br + Cc1cc([N+](=O)[O-])ccc1NS(=O)(=O)c1cc(Cl)ccc1Cl [FH535] (first compound 2 µM, partner dose 1 µM) | 87.8 | 87 | 95.1 | 84.2 | 84.9 | 79.7 | 83.3 | 78.6 | 81.8
9 | O=C(O)c1ccc(-c2c[nH]c3ncc(-c4ccccc4)cc23)cc1C1CCCC1 + O=C(Oc1ccc([N+](=O)[O-])cc1)N1CCC(C(O)(c2ccc3c(c2)OCO3)c2ccc3c(c2)OCO3)CC1 [JZL184] (first compound 0.16 µM, partner dose 1 µM) | 84.9 | 91.5 | 104 | 102 | 77.6 | 115 | 97 | 84.4 | 87.5
10 | O=C(Oc1ccc([N+](=O)[O-])cc1)N1CCC(C(O)(c2ccc3c(c2)OCO3)c2ccc3c(c2)OCO3)CC1 + O=c1cc(-c2cccc3c2Sc2ccccc2S3)oc(N2CCOCC2)c1 [KU55933] (first compound 1 µM, partner dose 1 µM) | 101 | 97.7 | 102 | 106 | 92.6 | 98.2 | 91.1 | 94.8 | 83.9
11 | Cc1cc(SCc2sc(-c3ccc(C(F)(F)F)c(F)c3)nc2C)ccc1OCC(=O)O + CC(C)CCN1c2nc(Nc3cc(F)c(O)c(F)c3)ncc2N(C)C(=O)C1C [BID1870] (first compound 2 µM, partner dose 0.2 µM) | 105 | 92.7 | 114 | 73.2 | 90.9 | 105 | 89 | 104 | 96.3
12 | Cn1nnc2c(C(N)=O)ncn2c1=O [temozolomide] + O=C(Oc1ccc([N+](=O)[O-])cc1)N1CCC(C(O)(c2ccc3c(c2)OCO3)c2ccc3c(c2)OCO3)CC1 [JZL184] (first compound 2 µM, partner dose 1 µM) | 89.6 | 99 | 84.4 | 111 | 74.6 | 114 | 92.1 | 108 | 79.9
13 | CCN(CC)CCCCNc1ncc2cc(-c3cc(OC)cc(OC)c3)c(NC(=O)NC(C)(C)C)nc2n1 + O=C(Oc1ccc([N+](=O)[O-])cc1)N1CCC(C(O)(c2ccc3c(c2)OCO3)c2ccc3c(c2)OCO3)CC1 [JZL184] (first compound 0.1 µM, partner dose 1 µM) | 101 | 94.5 | 113 | 88.4 | 87.9 | 85.1 | 89.1 | 119 | 82.6
14 | Cc1cc(SCc2sc(-c3ccc(C(F)(F)F)c(F)c3)nc2C)ccc1OCC(=O)O + Oc1cc(-c2nc(-c3ccccc3)[nH]c2-c2ccncc2)ccc1Cl [L779450] (first compound 2 µM, partner dose 0.2 µM) | 80.1 | 102 | 115 | 97.6 | 73.2 | 89.2 | 94.1 | 75.2 | 68.2
15 | Cc1cc(SCc2sc(-c3ccc(C(F)(F)F)c(F)c3)nc2C)ccc1OCC(=O)O + COc1cc(N2CCC(N3CCN(C)CC3)CC2)ccc1Nc1ncc(Cl)c(Nc2ccccc2S(=O)(=O)C(C)C)n1 [NVP-TAE684] (first compound 2 µM, partner dose 0.08 µM) | 103 | 101 | 108 | 99.3 | 100 | 96.7 | 97.6 | 103 | 119
16 | Cc1cc(SCc2sc(-c3ccc(C(F)(F)F)c(F)c3)nc2C)ccc1OCC(=O)O + Cc1cc([N+](=O)[O-])ccc1NS(=O)(=O)c1cc(Cl)ccc1Cl [FH535] (first compound 2 µM, partner dose 1 µM) | 95.1 | 108 | 105 | 95.1 | 89.3 | 115 | 93.3 | 114 | 99
17 | O=S(=O)(c1ccccc1)N(CC(F)(F)F)c1ccc(C(O)(C(F)(F)F)C(F)(F)F)cc1 + Cc1cc(SCc2sc(-c3ccc(C(F)(F)F)c(F)c3)nc2C)ccc1OCC(=O)O [GW0742] (first compound 1.4 µM, partner dose 2 µM) | 93 | 101 | 101 | 98.9 | 86.5 | 107 | 103 | 107 | 95.6
18 | Cc1cc(N2CCOCC2)cc2[nH]c(-c3c(NC[C@@H](O)c4cccc(Cl)c4)cc[nH]c3=O)nc12 + C/C(O)=C(\C#N)C(=O)Nc1cc(Br)ccc1Br [LFM-A13] (first compound 0.2 µM, partner dose 2 µM) | 105 | 79.9 | 95.2 | 88.3 | 75.9 | 72.2 | 93 | 76.8 | 78.7
19 | COc1ccc(-c2ccc3c(N4CCOCC4)nc(N4C[C@@H](C)O[C@@H](C)C4)nc3n2)cc1CO + O=C(Oc1ccc([N+](=O)[O-])cc1)N1CCC(C(O)(c2ccc3c(c2)OCO3)c2ccc3c(c2)OCO3)CC1 [JZL184] (first compound 0.02 µM, partner dose 1 µM) | 96.7 | 104 | 77.4 | 102 | 88 | 83 | 104 | 96.4 | 90.8
20 | COc1cc(Nc2ncc(F)c(Nc3ccc4c(n3)NC(=O)C(C)(C)O4)n2)cc(OC)c1OC [Tamatinib] + C/C(O)=C(\C#N)C(=O)Nc1cc(Br)ccc1Br [LFM-A13] (first compound 0.4 µM, partner dose 2 µM) | 94.4 | 83.4 | 89.1 | 126 | 84.7 | 89.2 | 83.8 | 62.9 | 96.5
21 | COC(=O)c1sccc1S(=O)(=O)Nc1ccc(Nc2ccccc2)cc1OC + Cc1cc(SCc2sc(-c3ccc(C(F)(F)F)c(F)c3)nc2C)ccc1OCC(=O)O [GW0742] (first compound 1 µM, partner dose 2 µM) | 95 | 95.3 | 92.3 | 109 | 102 | 107 | 87.9 | 96.7 | 92.9
22 | N#Cc1c(O)c2c(-c3ccc(-c4ccccc4O)cc3)csc2[nH]c1=O + C/C(O)=C(\C#N)C(=O)Nc1cc(Br)ccc1Br [LFM-A13] (first compound 2 µM, partner dose 2 µM) | 102 | 96.2 | 97.6 | 102 | 91.4 | 87.4 | 85.2 | 98 | 97.6
23 | CC1(C)NC(=O)N(c2ccc([N+](=O)[O-])c(C(F)(F)F)c2)C1=O [nilutamide] + C/C(O)=C(\C#N)C(=O)Nc1cc(Br)ccc1Br [LFM-A13] (first compound 1 µM, partner dose 2 µM) | 94.9 | 86 | 102 | 91.1 | 86 | 87.9 | 95.2 | 89.8 | 91
24 | Cc1cc(N2CCOCC2)cc2[nH]c(-c3c(NC[C@@H](O)c4cccc(Cl)c4)cc[nH]c3=O)nc12 + Cc1cc(SCc2sc(-c3ccc(C(F)(F)F)c(F)c3)nc2C)ccc1OCC(=O)O [GW0742] (first compound 0.2 µM, partner dose 2 µM) | 103 | 97.6 | 107 | 93.4 | 93.5 | 94.2 | 83.3 | 77.2 | 88.7
25 | COc1cc2c(Oc3ccc4[nH]c(C)cc4c3F)ncnc2cc1OCCCN1CCCC1 [cediranib] + C/C(O)=C(\C#N)C(=O)Nc1cc(Br)ccc1Br [LFM-A13] (first compound 0.4 µM, partner dose 2 µM) | 97.4 | 102 | 93.3 | 102 | 87.4 | 73.8 | 105 | 122 | 93.5
26 | CCc1ccc(CCOc2ccc(CC3SC(=O)NC3=O)cc2)nc1 (stereo not drawn) [pioglitazone] + C/C(O)=C(\C#N)C(=O)Nc1cc(Br)ccc1Br [LFM-A13] (first compound 2 µM, partner dose 2 µM) | 98.6 | 104 | 92.3 | 85.2 | 80.2 | 89.5 | 95.9 | 87 | 85.5
27 | Cc1ccc(NC(=O)c2cccc(N(C)C)c2)cc1NC(=O)c1ccc(O)cc1 + O=C(Oc1ccc([N+](=O)[O-])cc1)N1CCC(C(O)(c2ccc3c(c2)OCO3)c2ccc3c(c2)OCO3)CC1 [JZL184] (first compound 2 µM, partner dose 1 µM) | 80.6 | 91.4 | 87.5 | 93 | 102 | 68.9 | 97.1 | 103 | 91.3
